Measured values taken from the supplement of paper PMC4466236.
The full ranking holds about 33,000 sequences; the median of “E-score (dimensionless, -0.5 to 0.5)” is about -0.058, and the highest 2% start at about 0.35. The list shows a part of the results.

tested on: MvaT; assay: PBM 8-mer E-score (mean of HK and ME arrays) (E-score (dimensionless, -0.5 to 0.5)); higher = stronger relative binding preference; most listed sequences are background and not binding sites
Summary of the method: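 Full-length P. aeruginosa MvaT carrying an N-terminal glutathione S-transferase tag was tested by protein binding microarray following a previously described protocol. Two universal double-stranded 60-mer arrays, ME and HK, were used, each with a constant 25-mer primer region and a variable 35-mer region covering all 8-mers. The rank-based E-score is the mean of the two arrays, parsed with a custom script. Its range runs from -0.5 to 0.5 for each 8-mer.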

Sequence | PBM 8-mer E-score
ACCGAGCA | -0.0631
ACTCGCCA | -0.0387
AGAGACTG | -0.0263
AGTTAGAT | 0.249
AACTAGGC | 0.0482
CGCTTCCG | -0.225
AGTTCCCG | -0.168
AGCAAGAA | 0.0118
CAGCGATG | -0.174
GAGCCAAC | -0.181
GAGTTGAC | -0.118
ACCGGACT | -0.137
CAGTCCTA | -0.1
GAAACCCC | -0.293
AGGGCTGC | -0.248
CATCAGAA | -0.0278
GGACACGA | -0.163
GGGTTTGA | -0.077
ATTTCGGA | 0.179
GTGTGTCA | 0.134
CGATCAAC | -0.0799
GCTATATA | 0.402
CCCCGCTC | -0.217
ACGGTCCA | -0.12
ATGAGATG | -0.0965

Sequence | PBM 8-mer E-score
TACACTAA | 0.276
ACATCACG | -0.0982
ACCGCCCC | -0.307
TAGCTGAA | -0.0283
AGCTTAAG | 0.0156
AAAGAGCC | -0.0346
ATGGCCTG | -0.327
CTTTGCTC | -0.0975
GTCTGCAC | -0.0118
CCGGGAGG | -0.293
CGAAATGA | -0.0521
CAGAAGGC | -0.229
CTGTTGGA | 0.014
AGACAGAA | -0.0306
ATTGAGTA | 0.127
ATTTCATG | 0.184
GATATGGC | -0.12
GGAGACTA | -0.0934
AGGATGAC | -0.124
ATGGTCGA | -0.127
ACACGTGT | -0.0859
ACAGATGG | -0.0295
CGGTATTA | 0.187
GGAAGAGA | -0.234
CCGCCAGC | -0.258

Sequence | PBM 8-mer E-score
GAACGTCA | -0.0941
ATCATCGG | -0.0977
ACCCCCAC | -0.242
TAAGGGGA | -0.128
ATAACAAT | 0.355
ATTGACGC | -0.03
ACTTCGAA | 0.247
AGAGTCAT | -0.0526
GCGCGTTA | 0.0588
AGCGTCAA | -0.106
CGTGGTCA | -0.0218
ATAAAATG | 0.249
AATATTAC | 0.372
ACTCTGGC | -0.165
CAGTATCC | -0.22
CGGATAAC | 0.0833
GAACCGAC | -0.111
GGGCGCAC | -0.272
CTCCCTAC | -0.109
AAGGACCA | -0.154
ATATCGCA | 0.208
AGCGGGAT | -0.138
ACACACAC | 0.109
CGAGAATA | 0.118
GGATTACA | 0.17

Sequence | PBM 8-mer E-score
CATCGGCA | -0.243
CATCTTGG | -0.216
AGTGATAT | 0.256
CGAAGTAC | 0.097
GAAGGGGC | -0.364
TGAGAACA | 0.056
AAACGCGA | 0.0593
GTCGCGTA | -0.0332
ATCGCCAT | 0.016
ATCCGCTC | -0.0559
ATTAAAAG | 0.393
ATAAAGAC | 0.241
ACTTATAG | 0.251
AAGCGAGT | 0.0117
ATGGACAG | -0.12
ATATCTCC | 0.137
GTGAAGAA | -0.0121
GGAAATCA | -0.0787
CCCCAAAG | -0.265
AGGTGCAA | -0.0637
GTCGAGAA | -0.0478
AGCGTACT | -0.0455
AAGGCCAG | -0.242
CTACCAAG | -0.272
ATATGTTG | 0.359

Sequence | PBM 8-mer E-score
CAACGAAG | -0.0936
AGACCAAT | 0.0439
AGGGCGGG | -0.124
TACTTGAA | 0.168
GCAGTACA | -0.0133
CCAGTGGG | -0.31
GGTACTTA | 0.163
ACCTTTGC | -0.068
ATAGAGTC | -0.0643
CATTGACG | -0.1
CCGTAGCA | -0.197
GAACGAAA | 0.111
AGGTTAAC | 0.166
CCGTCCGA | -0.211
ACACGTCC | -0.136
AGAGTATG | 0.174
CGATACAG | -0.0892
CCAATTTC | 0.138
AAGATCGC | -0.0523
CCGGGAAG | -0.197
AAATCGCT | 0.0379
CAGTAGCC | -0.125
CCGCCGAG | -0.14
ATCTTACG | 0.058
AAGTTTGG | 0.161

Sequence | PBM 8-mer E-score
AATAGAGG | 0.127
ATTAACGA | 0.246
CGACAACG | -0.11
AACTGCGG | 0.034
GACAGACA | -0.0128
AACATGTC | -0.0784
ACCGCAAA | -0.0109
ATTCGGGA | 0.137
CCATCGTA | -0.295
CCCGGGAA | -0.142
AATTCTTA | 0.316
CTGGAGGC | -0.235
AGTTTATC | 0.144
CTTTGCCA | -0.0477
ATTGCGGC | -0.014
ATTATCTG | 0.355
GAGACCTC | -0.336
CTCGGCGC | -0.223
CACGGTGA | -0.216
CGGCCATA | -0.0816
ACGCAATG | 0.0122
AGGTCTTA | -0.121
ATGTAAAG | 0.278
CAGCATAG | 0.0322
CAGAGTCG | -0.165

Sequence | PBM 8-mer E-score
CGCCATAG | -0.251
ATAGCACC | -0.166
CTCAGAAA | 0.0348
CTTACCCC | -0.143
ACTTGTTG | 0.199
AAGGAGTG | -0.139
ATGTACCG | 0.184
ACCAATAT | 0.282
CAGACTAA | -0.00354
CGGCTCTA | -0.0831
AGTACGCA | -0.0531
AAGAGACG | -0.137
CGCCAAGC | -0.272
ACCTCGCA | -0.0477
AACAGCAA | 0.124
AACCGTGA | -0.0423
ACACACGC | -0.141
CTGCAACA | -0.0226
CCTGTGTA | -0.0928
ATCTATCA | 0.164
AAGATATA | 0.419
AGAGATAC | -0.000518
